Some of the results follow.
system: PfAP2-HC AP2 domain (GST-tagged); assay: gcPBM binding intensity (ln(normalized median fluorescence intensity)); higher = stronger DNA binding
Outline: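 Binding intensity is the highest Masliner-normalised natural-log median intensity over replicate spots in either probe orientation. To obtain it, GST-tagged P. falciparum DNA-binding domains made in E. coli were incubated for 1 h on an Agilent 4 × 180k array of primer-extended double-stranded 36-bp intergenic genomic probes plus negative controls. Detection used Alexa488 anti-GST antibody with scanning at 488 nm.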

Sequence	gcPBM binding intensity (ln)
GCATTTTAATAATTATGTACATATATTATTCCTGGT [XGTACX_site3664]	9.75
TTCCATCAAAAAATGGGTACACATTATAGAAATATT [XGTACX_site8482]	9.45
TATACATATATATATACACACATATATATATATACA [CACACA_site402]	9.8
ACGCATGTAATTTATACACACATTCTTTTATATTTT [CACACA_site3708]	9.87
AAATTATTATCGTTAATATGTATATATGTGCCAAGT [TGCATGCA_negctrl_site557]	9.7
AAAACATACAGATATACACACATATATATATATATA [CACACA_site5091]	10.1
ATATTTAAACGATGGTGTACATATATTACAAGTTGT [XGTACX_site1743]	9.72
AATATACGAAATTGTGCACACATATATTTATGTATG [CACACA_site1510]	10
TAAAATGAAGGAATATGTACATAAATAAACATATAT [XGTACX_site6266]	9.85
CATATATGATATATTAGTACATATATATATATATAT [XGTACX_site1574]	9.57
CGATATAAAGATATTAGTACATATGCATGCTTGTCT [XGTACX_site8629]	9.67
AATCTAATGTAATGCATACACACAACTATCCATCAA [CACACA_site535]	9.85
AGGTATATATATTTATGTACTTAAAATGAGAAAATA [XGTACX_site8337]	9.61
CATATACGCAAACACACACACATATATATATATATA [CACACA_site501]	11.6
TATAATAATATTTATTGTACAATTAGGTTAATTCAT [XGTACX_site1986]	9.52
AAAAATAAAGTAAAAGCATGCTAGTATATGGAAAAT [TGCATGCA_site486]	10.2
TTGAAATTAAATGACATACACACTATATTATATATT [CACACA_site3135]	9.75
TATCGTTATATAATATGTACATATAAAATTTAAATT [XGTACX_site1887]	9.57
AAAATGTATATATAAACATGCACACGTGGTTGTATA [TGCATGCA_site847]	9.89
TCTTAAATTTCTTTATGTACATAATTAATATATTTA [XGTACX_site4456]	9.73
TATATATTATGACCACCACACACCTATACGCATAAC [CACACA_site2447]	10.1
ATATATATATATATATGTACATATCACTTTAAATAT [XGTACX_site3859]	9.81

Sequence	gcPBM binding intensity (ln)
TTTTCTTAAAAAATCAAACACACATATATATATACA [CACACA_site2297]	9.64
ATGATAGTATGTATGAGTACGAAAAAAAAAAATTAA [XGTACX_site32]	9.67
TGTGGGAATAACCACACACACACACCCATATATATA [CACACA_site5876]	10.7
AAATGCAAATGATGATGTACATACAAAAATTAAATT [XGTACX_site5323]	9.86
CTCAAACAATATTATATAATAAAGTACATATATATT [CACACA_negctrl_site446]	9.57
AAAAATAAATATACATGTACTTAAAATAATCGAATA [XGTACX_site8432]	9.73
TATATTTTTATATTTTGTACATATAGTAAATATAAA [XGTACX_site4768]	9.41
ACGTATCAAAAAATTTGTACATATATATATATATAT [XGTACX_site1024]	9.9
GAACAGAAAAAGAATAGTACATATATATATATATAT [XGTACX_site3700]	9.56
ATTCAAAATAATAGAATTGTTAAAGTTGTAAATTGA [CACACA_negctrl_site727]	9.34
TATAATATGAACAGTACACACAAAATAAATTCGTAT [CACACA_site3586]	9.98
AAAAAAAAAGTATTATGTACATAAAAATAAAAAAAT [XGTACX_site4166]	9.85
GTTTATGTTAAACCATGTACTTAATATTTTATTCTT [XGTACX_site3761]	9.76
TATGATTCATAATAGTGTACGTAAAAATTGACTAGA [XGTACX_site5376]	9.67
TATTAAAATATGTCAGTTCTTAAAAAGTTGATGAGT [GTGCAC_negctrl_site77]	9.45
AAAAATATATAAAGAAAAAGAATATAATATAAAATA [GTGCAC_negctrl_site208]	9.66
ATTGTAGAATTTAATAGTACTCACGAATAAAATAAA [XGTACX_site6280]	9.49
ACCATGAAAATATTATGTACATATGTATTATATATA [XGTACX_site408]	9.64
GAGTGAGCTAATAAAAGTACGTAATAAACAAACGCA [XGTACX_site131]	9.68
ATAGCTGTATTTAATACACACAAAACTTTCATTCCA [CACACA_site5868]	9.72
TTTTTTTGTTTTGTTTTTTTTTTTTTTTTTTTTTTG [CACACA_negctrl_site570]	9.2
TTACCGTAAAAATTTTGTACATAAAATAATATATAA [XGTACX_site532]	9.54

Source: the supplement of paper PMC11417369
